Measured values from the RNAGym collection of RNA variant scans (doi:10.7554/elife.90254).
The source gives no read counts; variants with many changes may rest on few reads.

B1: OR4K15 (parent)
chain: GUUAACGGUCAUAGGCCAUGGAAACUAGGAGCACCAUUUCGCUGCCAGUGAAGAAAUGAACAAAGAAAAUCUGGGCCAGGCAGGCAUCAAAAGAAAUAGUCUUGCGCUCAACCAGAAAGUCUGUAAUCAUUUUAAGGGUA

Variants of: B1
Assay: self-cleavage, relative activity (ratio to wild type); higher = more cleavage; in vitro, sequencing; the parent is a self-cleaving ribozyme

Variant | self-cleavage
A24U A90G A110U | 0.41
U26A U38C U102C | 2.01
U26C A52G A116G | 0.36
A24G A55C A78U A86G A92G | 0.08
A24G A60U A92G | 1.09
U26C A54G A86G U124C | 0.49
U26A A51U U108A | 0
A24G A63G A92G | 1.18
A24G A54G A67G U108C | 0
A24G U39A A68C A126G | 1.16
A24U U38C A54G U87C | 1.07
U26A A33G A51G G104A A116U A117G | 0.01
U26C A92G U102C U120C | 0.78
A24U C34U U57C U70C A126G U130C A140G | 0.2
A24G A51G A110G | 0.06
A24G C32U U49C A64G | 0.86
A24U A60G A78G U102C U131C | 0.22
A24G A126G U132C | 1.4
A27G A66G A86G | 2.03
A24G A64G A86G | 0.87
U26A A66G A134G | 1.2
A24G A62U A110G U124A A126G | 0.16
A24U A68C U103C G119U | 0.99
A24G G44A A51G G137A | 0.85

Variant | self-cleavage
A24G A27G A52G U57A | 0.58
U26C A68G A69G U102C A129G | 0.83
A24G A67G A78U A89U A140G | 0.55
A24C U49A A116G | 0.39
A24U U49C A126G | 1.11
A24G A59G A62G A78G A94G U108G U127C | 0.02
U26C A33G U39C A68G U103C | 0.48
U26C A55G A114G | 0.24
A24G A56G U103C A129C | 0.25
U26C A36G A54G A63U U100C A110G U120C G123A | 0.52
U26A A114U U120A | 0.04
C25A A33G A78G A92G A118G | 0.06
A24G A52G A59G A110G | 0.15
U26C A51G A54G A55U | 1.1
A24U G48U A67G A86G A90U A111G | 0.02
A24G A86G U124A | 0.67
U26G U43A U103C | 1.32
A24G A30G A92G U120C | 0.37
A24G A52G A69G A98U A114G A118C | 0.37
A24G A89C U127C | 0.53
A24G A56G A67C U87C | 0.95
A24G A30U U100C A117G | 2.03
A27G A51G C88U | 1.13
U26C U43C U132A | 1.54

Variant | self-cleavage
U26C A56G A59U | 0.94
U26C A36G A59G U72C A82G | 0.33
C25U A47G A114G | 0.15
A24U U49A A56U | 0.89
U26A U103C U132C | 1.03
A24G A27G U43A A95G U100C A110G A111G | 0.01
A24G A92G A140G | 0.83
U26C A96G A114U | 0.06
A27G A59G U131C | 1.23
A24G U49A A95G | 0.18
A24U A126G U130C | 0.75
A24G A33G A96G | 1.49
A27G A47G A66G | 0.97
U26C A47G C112U U132C | 0.01
U26C U70C U122C | 0.18
A24U A36C U37A U97C U103A A118G | 0.37
A27G A59C A67G U87C | 0.75
A24G A52G U72C | 0.35
A24U U37C A96G U102C | 1.36
A24G G53A A55G A59G A69G U127A | 0.9
A24G A51G U133C | 0.7
A24G U38C A62G A64G G79A A91U A126G A135G | 0.18
A24U A89U U103C U108A | 0.01
A24G A47U A95G | 1.07

Variant | self-cleavage
U26A U37C A118G | 1.63
U26C U39A U43C A64G A86G | 1.02
U26C A64G G74C U108A | 0.03
A27G A59U A68G A91G | 1.05
A27G A60G A95C U100C A125G | 0.14
A24U A30U A51G A60G | 1.47
A24G U39A U57C U122C | 1.93
U26A A78U U97C A116G | 0.03
A24G A51G A92G U122C U130C | 1.2
A24G A51G A55G A135G | 1.64
A24U A33G A51G A64G | 0.4
U26C G79A A116G | 0.09
A24G A36U A52G U102C | 1.16
A24U A55G U70C A110G | 0.06
A24G A78G U87C A91G | 0.07
U26C A33G G75A U100C U108C U124A | 0
U26C A27U A118U | 0.97
U26C A30U U131C | 0.91
A24U U43C A67G U133A | 2.63
A24G A62G A68U | 1.35
U26C A33G U39C A54G A69G U87G | 0.21
A24G A117G U127A | 1.33
A24G A54G U57A | 1.21
A24G A95G G104A U122A | 0.01

Variant | self-cleavage
A27C A52G A67G G73A | 0.26
A24G A68G G137U | 1.33
A27G A33G A52U A60G | 1.18
A24U A92G U120C | 0.46
U26C A27G A47G A95G | 1.18
A24G A51G A56G A64G A94G A96G C128U | 0.45
A24G A47G A54G | 1.55
U26C U103C A116G | 0.01
U26A A82U A110U | 0.06
A24G A52G A67G | 1.16
U26C U43A A55G A86U A92G A117G U120C | 0.25
A24G G74A A91U | 0.23
A27G A67G U100C | 1.94
A24U C77U G84A | 1.84
C25U C113A A129G U133C | 0
U26A A54G A114G A117G | 0.44
U26C A69G A91G G99U | 0.15
A24G A92G A129C | 0.6
A24U A91G C121U | 1.89
A24G A59U A82C U122C A134G | 0.1
A24G A36G A55U U70C U102C A111G A140G | 0.02
A27C A52G A111G | 0.03
A24G U43C A55G A95G U130C | 1.75
A24U A47U C81U A126G | 0.18

Variant | self-cleavage
U26C A59G A68G | 1.27
U26C A56G U72G A116G | 0.15
A24C U57C A59G A89G | 1.26
A24G A78G A118G | 0.18
A24G A30G U43C A62G U72C | 0.42
A24U A47G A90G A110G | 0.09
A24G A68G A114U U127A | 0.07
A24G A86G A91G A129G | 0.18
A24G A51G A91G A118G U122C | 0.03
U26C A63C U97C | 1.8
A24G A59G U127C | 1.16
A24G U49C A111G A117C | 0.01
A24G A55G A94U U108C | 0.02
A24G A62G U103C U122C U130C | 0.39
A24G A27G U38A | 1.29
A24G A27G A110G | 0.19
U26C A54G A62U | 0.92
U26C U57C A60G | 0.41
A24U A54G A66U | 1.14
A24G A96G C105U | 0.33
C25A A59U U72G U108A A114U | 0.02
A24G U70A A86G U97C | 0.83
A24G A33U U37C A66U U130C | 0.8
U26C A67G G84U C128U U132C | 0.29

Variant | self-cleavage
A24G U49G A89G A114U A117G | 0.03
U26C G31U A66G A89G A90G A95G | 2.08
U26C A27C G123A | 1.54
A24G U39A A78G U108C | 0.06
C25U A52G A60U U108C | 0
U26C G73A C81U A117G U132C | 0.21
A24G U87C U122C U130C | 0.79
A24U A82G U102C U124C | 0.6
U26C A54G A60G U100C A116G A135G | 1.07
A24G U49A U122C | 0.54
A24G U43A A116G | 1.26
A24G A36G U108A U122C | 0.01
A27G A60G A89G U102C A118G A134U | 1.25
A24G U39C U72C U87A | 0.32
A24G A27G A54G U120C | 0.73
A24G U43C A52G A64G A67G A140C | 1.12
A24G A30G U49C A90U A98U | 0.62
U26A U102C A135G | 1.72
A24G A30G U72C | 0.15
A24G U49C A62G A91G | 0.94
A24G U26C A51G | 0.71
U26C A30G A59G | 0
A24G A30U U100C | 1.32
